Experimental data: ChEMBL document CHEMBL1201862, “PubChem BioAssay data set” (2004)

tested on: NCI-H322M; assay: growth of human tumour cells (NCI), 48 h

SMILES	GI50
O=C(CSc1nnc(Cc2ccccc2)o1)Nc1ccccc1	inactive: > 100 µM
NC(=O)C1CCCNC1 (centres undefined)	inactive: > 100 µM
COc1cc(C(c2cc3c(cc2O)OCO3)N2CCCCC2)cc(OC)c1OC (centres undefined)	inactive: 25.9 µM
CC(=O)OCC1OC(n2c(-c3ccc(Cl)cc3)ccc(C#N)c2=S)C(OC(C)=O)C(OC(C)=O)C1OC(C)=O (centres undefined)	inactive: > 100 µM
N#C/C(=C1\SCC(=O)N1c1ccccc1)c1nc2ccccc2[nH]1	inactive: > 100 µM
N#C/C(C(=O)CCl)=C1\Nc2ccccc2O1	inactive: 12.4 µM
COC(=O)c1ccc(/C=C2\N=C(C)OC2=O)cc1	inactive: > 100 µM
Cc1cc(C)c(C2[C@H]3C(=O)N(c4ccc(Cc5ccc(N6C(=O)[C@@H]7ON(c8ccccc8)C(c8c(C)cc(C)cc8C)[C@@H]7C6=O)cc5)cc4)C(=O)[C@H]3ON2c2ccccc2)c(C)c1 (some centres undefined)	inactive: > 100 µM
CCOC(=O)CCC(NC(=O)Cc1ccc(Nc2nc3cc(F)c(F)cc3nc2C(=O)OCC)cc1)C(=O)OCC (centres undefined)	inactive: > 100 µM
COc1cc([C@@H]2c3cc4c(cc3[C@@H](NC(=O)c3cccc([N+](=O)[O-])c3)C3COC(=O)[C@@H]32)OCO4)cc(OC)c1O (some centres undefined)	inactive: 6.65 µM
Nc1nc2ncn(CC(O)COC(=O)c3ccccc3)c2c(=O)[nH]1 (centres undefined)	inactive: > 100 µM
O=C1C(Cl)=C(N2CCN(CCOCCO)CC2)C(=O)c2c(O)ccc(O)c21	inactive: 1.78 µM
COC1C=COC2(C)Oc3c(C)c(O)c4c(O)c(c(C5SCCS5)c(O)c4c3C2=O)NC(=O)/C(C)=C\C=CC(C)C(O)C(C)C(O)C(C)C(OC(C)=O)C1C (centres undefined)	inactive: 17.9 µM
CN(C)C(=O)OC1=CC2CCC(C1)N2C (centres undefined)	inactive: > 100 µM
O=C1CC(n2cccc2)c2cc(Br)sc21 (centres undefined)	inactive: > 100 µM
COc1ccc(N[S+]([O-])c2c(C)cc(C)cc2C)cc1 (centres undefined)	inactive: 98.6 µM
C[n+]1c(Cl)cn2c3nc4ccccc4nc3c([O-])c(C#N)c21	inactive: > 100 µM
CCCCn1c(N)c(-c2nc3ccccc3o2)sc1=S	inactive: 22.1 µM
COC(=O)C1=C(O)C(C(=O)OC)[C@@]2(O)[C@@H](C(=O)OC)[C@H](C)[C@@H](C)[C@@H]1[C@@H]2C(=O)OC (some centres undefined)	inactive: > 100 µM
COc1cc(C(=O)/C=C/c2ccc(OCC#N)cc2)cc(OC)c1OC	inactive: 28.6 µM
CNS(=O)(=O)NNS(=O)(=O)c1ccc(Cl)cc1	inactive: > 100 µM
O=c1[nH]nc(-c2ccccc2)n1/N=C/c1ccccc1O	inactive: 79.4 µM

SMILES	GI50
C#CCn1c(=O)c(C)cn(/C(=C\C(=O)OCC)C(=O)OCC)c1=O	inactive: 20.7 µM
[O-][n+]1c2cc(CN3CCOCC3)c(CN3CCOCC3)cc2[n+]([O-])c2c(O)cccc21	inactive: 9.27 µM
O=S(=O)(c1ccccc1)C1CN(Cc2ccccc2)CCN(Cc2ccccc2)C1	inactive: > 59.4 µM
COC(=O)C(=O)C(C(=O)C=C(C)C)C(=O)C(=O)Nc1cccc(C(C)=O)c1 (centres undefined)	inactive: > 100 µM
CC(C)NC(=O)OCc1c(COC(=O)NC(C)C)c(-c2cc[n+](COC(=O)C3CC3)cc2)n2c1CCC2	inactive: > 100 µM
O=C(c1ccc(-c2ccccc2)cc1)N(Cc1cccnc1)C(=S)N(Cc1cccnc1)C(=O)c1ccc(-c2ccccc2)cc1	inactive: > 100 µM
O=C(O)CNc1ccc2c(c1)Cc1cc(Br)ccc1-2	inactive: 21.7 µM
CC(C)CCNC(=O)c1ccc(CNC(=O)/C=C/c2ccc3c(c2)-c2ccccc2C3)cc1	inactive: > 100 µM
C/C(CC/C(C)=N/O)=N\O	inactive: > 100 µM
OC1CSCCCSCCSCCCSC1	inactive: > 100 µM
Cc1occc1C(=S)Nc1ccc(Cl)c(/C=N/OC(C)C)c1	inactive: 21.8 µM
Nc1ccc2c(c1)C(=O)N1CCC[C@H]1C(=O)N2	inactive: > 100 µM
CCOC(=O)/C=C(/CN1C(=O)c2ccccc2C1=O)c1ccccc1	inactive: > 100 µM
O=C(O)c1ccc(Nc2nc3cc(C(F)(F)F)ccc3nc2-c2ccccc2)cc1	inactive: 17.8 µM
COc1ccc(Cn2c(C)nc3c2C(=O)c2ccccc2C3=O)cc1	inactive: 20 µM
CC1(C)C(=O)C=CC2(C)C1CC(O)C1(C)C2CCC2(C)C(c3ccoc3)OC(=O)C3OC321 (centres undefined)	inactive: 30.6 µM
CCOC(=O)c1c(NC(=O)c2ccccc2)sc2c1CCC2	inactive: > 100 µM
Cc1ccc(C2=C(c3ccccc3)C(Br)(c3ccccc3)C(c3ccccc3)=C2c2ccc(C)cc2)cc1	inactive: > 100 µM
Brc1cccc(Nc2nc(-c3cccs3)nc3ccc(Br)cc23)c1	inactive: 29.6 µM
O=C(O)c1cc2cc(c1)/N=C/c1ccccc1OCc1cccc(n1)COc1ccccc1/C=N/2	inactive: > 25 µM
O=c1cc2oc3ccc4ccccc4c3cc-2c(=O)[nH]1	inactive: 14.9 µM
CSCCC(NC(=O)C(Cc1ccccc1)NC(=O)CNC(=O)CNC(=O)C(N)Cc1ccc(O)cc1)C(=O)O (centres undefined)	inactive: > 100 µM

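Protocol summary: plate cells (96-well), add compound at 5 concentrations, incubate 48 h, interpolate endpoints linearly. GI50 = concentration required for 50% inhibition of growth.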 The source made the active and inactive calls. No stated cut-off is given here; in the data, active = GI50 up to about 1.1 µM and inactive = higher.
